Test results: PubChem BioAssay AID488969 (Vanderbilt High Throughput Screening Facility, 2010)
In all, about 110,000 compounds were measured (“z-score”: median about -0.1, highest 2% from about 2 on). The list shows a part of the results.

target: Metabotropic glutamate receptor 8 (Rattus norvegicus) (UniProt P70579); assay: mGluR8 Gi/Go-coupled signaling modulation – cell-based, rat, thallium flux, HTS, primary screen (AID 488969); conditions: HEK293 rat mGluR8, GIRK (G protein-gated inwardly rectifying potassium channel) thallium flux, FluoZin2; at 10 µM; stronger effect = higher value; submaximal glutamate (EC20) added with thallium
Chain of UniProt P70579 (P70579 whole entry, looked up): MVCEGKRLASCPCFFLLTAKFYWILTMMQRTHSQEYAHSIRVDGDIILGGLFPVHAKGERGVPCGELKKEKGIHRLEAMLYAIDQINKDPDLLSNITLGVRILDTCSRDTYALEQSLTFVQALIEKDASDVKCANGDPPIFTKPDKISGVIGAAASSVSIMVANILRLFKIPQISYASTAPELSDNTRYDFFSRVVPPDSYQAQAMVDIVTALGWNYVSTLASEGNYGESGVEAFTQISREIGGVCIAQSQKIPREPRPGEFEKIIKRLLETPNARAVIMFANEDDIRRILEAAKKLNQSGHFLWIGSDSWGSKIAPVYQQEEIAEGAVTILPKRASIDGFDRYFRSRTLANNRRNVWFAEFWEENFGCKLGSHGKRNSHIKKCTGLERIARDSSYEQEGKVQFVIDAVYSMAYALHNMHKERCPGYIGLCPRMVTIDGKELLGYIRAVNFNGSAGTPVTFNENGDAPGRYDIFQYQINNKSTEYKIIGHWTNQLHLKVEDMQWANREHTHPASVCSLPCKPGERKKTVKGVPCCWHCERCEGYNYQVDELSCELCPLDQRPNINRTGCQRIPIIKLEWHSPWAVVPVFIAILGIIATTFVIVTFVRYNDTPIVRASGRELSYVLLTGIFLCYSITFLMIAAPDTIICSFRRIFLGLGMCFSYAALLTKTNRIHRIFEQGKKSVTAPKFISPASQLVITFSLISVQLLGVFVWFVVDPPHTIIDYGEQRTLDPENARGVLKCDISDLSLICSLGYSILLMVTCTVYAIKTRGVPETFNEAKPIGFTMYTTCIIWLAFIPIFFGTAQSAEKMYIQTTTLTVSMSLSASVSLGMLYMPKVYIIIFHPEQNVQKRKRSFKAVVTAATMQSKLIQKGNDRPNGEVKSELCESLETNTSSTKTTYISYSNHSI

Compound | z-score
COc1ccccc1-c1nc(C(F)(F)F)c(OC)o1 | -0.631
CCOC(=O)C1CCN(c2nc3ccccc3nc2C(C#N)C(=O)OCCOC)CC1 (centres undefined) | -0.177
Cc1ccc(C(=O)CSc2nnc(-c3ccc4[nH]c(C)c(C)c4c3)o2)cc1C | -0.088
CCCCC(CC)CNC(=O)C1CC=CCC1C(=O)O (centres undefined) | -0.174
Cc1ccc2c(c1)c(C)c(C)n2CC(O)CN1CCOCC1 (centres undefined) | 0.188
CN(c1cccc(NC(=O)c2ccccc2N(C)S(=O)(=O)c2ccccc2)c1)S(C)(=O)=O | -0.199
CCC(=O)Nc1cccc2c1C(=O)N(C)C2=O | -0.0595
COc1cccc(/C=N/n2c(-c3n[nH]c4c3CCC4)n[nH]c2=S)c1O | -0.0945
COC(=O)c1ccccc1NC(=O)CN1C(=O)c2ccccc2S1(=O)=O | -0.461
CC/C(=N\N=C1\SC(C)C(=O)N1Cc1ccco1)c1ccccc1 (centres undefined) | -0.0986
Cc1ccnc(N2CCC(C(=O)Nc3nnc(C)s3)CC2)n1 | -0.616
CCCCC(=O)c1c(O)c2ccccc2oc1=O | -0.315
CCCCN1C(=O)CC(N2CCOCC2)C1=O (centres undefined) | -0.0831
O=C(O)C1CCCN1S(=O)(=O)c1ccc(Br)s1 (centres undefined) (tested in a mixture with another compound) | 0.764
CCOC(=O)c1[nH]c(C)c(CCC(=O)OC)c1C | 0.104
CCc1nnc(NC(=O)CCC(=O)N2CCN(Cc3ccccc3)CC2)s1 | 0.363
CC(C)(C)C1=Nn2c(nnc2-c2n[nH]c3c2CCC3)SC1 | 0.964
COc1ccc(O)c(-c2cc(C(F)(F)C(F)F)nc(-c3ccccc3)n2)c1 | -0.115
CCOc1ccc(NC2=NCC(=O)N2Cc2cccs2)cc1 | -1.01
COc1ccc2c(C(=O)CN3CCC(C)CC3)c[nH]c2c1 | 0.0332
O=C1CC(SCc2nc3ccccc3[nH]2)C(=O)N1c1cccc(F)c1 (centres undefined) | -0.0666
CC(=O)Nc1ccccc1OCC(=O)c1ccc2c(c1)OCO2 | 2.07
O=C(NCc1ccc(Cl)cc1)c1cccc(NC(=O)c2ccccc2)c1 | -0.315
COc1cccc(-n2nc(-c3ccnn3-c3ccc(F)cc3)c(=O)n(C)c2=O)c1 | -0.33
COc1ccccc1C(=O)Nc1ccccc1N1CCOCC1 | -0.0371
COC(=O)C(C(=O)Nc1cc(C)on1)C1CCCCCC1 (centres undefined) | -0.152
CC(C)CN1C(=O)c2ccc(C(=O)Nc3nccs3)cc2C1=O | -0.176

Compound | z-score
O=C(O)c1nc(-c2ccccc2)n(-c2ccc(Cl)cc2)n1 | -0.161
Cc1ccccc1N1CC(c2nc3ccccc3[nH]2)CC1=O (centres undefined) | -0.158
CN(CCc1ccccn1)C(=O)CCNC(=O)Cn1cnc2ccccc2c1=O | 0.117
Cc1ccc(C(=O)N2CCC(C(N)=O)CC2)cc1C | -0.31
O=C(NCCCN1CCCC1=O)c1ccc(OCc2ccccc2)cc1 | -0.158
CCCCCOC(=O)Cc1c(O)c2ccccc2n(C)c1=O | 0.588
COC(=O)c1cccc(NC(=O)Cn2nnc3ccccc32)c1 | -0.317
C=CCSC1=C(C#N)C(c2ccccc2Cl)CC(=O)N1 (centres undefined) | -2.04
CCOC(=O)c1[nH]c2ccc(Br)cc2c1NC(=O)CCN1CCC(C(=O)OCC)CC1 | -0.0231
COc1ccc(S(=O)(=O)N2CCCCCC2)cc1N(C)S(=O)(=O)c1ccc(C)cc1 | -0.0674
COC(=O)COc1ccc(NC(=O)C2CCCO2)cc1 (centres undefined) | -0.0331
Cc1ccc(NC(=O)CCC(=O)NCCO)cc1 | -0.739
O=C(CN(c1ccc2c(c1)OCCO2)S(=O)(=O)c1ccccc1)Nc1ccc2c(c1)OCO2 | -0.293
CS(=O)(=O)N(CC(=O)N1CCCCC1)Cc1ccc(Cl)cc1 | -0.185
c1cnc(NC2CCCCCC2)nc1 | -0.209
Cn1c(=O)c2c(nc(NCC3CCCO3)n2Cc2cccc(Br)c2)n(C)c1=O (centres undefined) | -0.125
O=C(Cn1c(=O)oc2cc(S(=O)(=O)NCc3ccccc3)ccc21)NCc1ccco1 | -0.387
CCOC(=O)C(C(=O)NCc1ccc(F)cc1)c1ncc(C(F)(F)F)cc1Cl (centres undefined) | -0.0848
CCOc1ccc(NC(=O)CN2CCN(CC(=O)Nc3ccc(Cl)c(C(F)(F)F)c3)CC2)cc1 | -0.0101
CCCN1CCN(CCCNC(=S)Nc2ccc(OC)cc2)CC1 | 0.0132
O=C(OCn1nnc2ccccc2c1=O)c1ccc(N2CCOCC2)c([N+](=O)[O-])c1 | -0.247
CCc1ccc(-c2ccc(C(=O)C(F)(F)F)[nH]2)cc1 | -0.0177
Cc1ccc(CN(C(=O)CNC(=O)c2cccs2)C(C(=O)NCC2CCCO2)c2ccccc2)cc1 (centres undefined) | -0.275
CCOC(=O)C1CCCN(C(=O)c2ccc3c(=O)n(CCOC)c(=S)[nH]c3c2)C1 (centres undefined) | 0.771
CCn1c(CNC(=O)COc2ccc(C(C)C)cc2)nnc1SCC(=O)Nc1ccccc1F | -0.291
CCC1=[N+](CC(=O)c2ccc(C)cc2)CCn2c(C)ccc21 | -0.247
COc1ccc(CC(=O)c2c(O)cc(O)cc2O)cc1OC | -0.144
